Experimental findings from PubChem BioAssay AID1346428 (National Center for Advancing Translational Sciences (NCATS), 2018) are described below.

Where “and” joins values, the source holds several entries; their conditions need not be identical. Equal values may be shown once. Hit rate of the full screen: of about 48,000 compounds, about 1,200 (2.5%) were called active. Another 2% or so got no clear call; they are omitted.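 Rule for the calls: active = activation of at least 60% and not above a set upper limit (about 1 call in 100 departs from these limits); inconclusive = activation of 40% to 60%, or above that upper limit; inactive = activation under 40%.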 The list shows a part of the results.

This assay deals with Probable G-protein coupled receptor 32 (Homo sapiens) (UniProt O75388). Nature of the assay: qHTS for Agonists of Human Resolvin D1 Receptor DRV1. Note: 0% is about no effect. The conditions noted are these: CHO-K1 GPR32 beta-arrestin PathHunter luminescence, 90 min; at 76.9 µM; hits give high values; zero percent set by DMSO-only wells. A digest of the protocol: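 Agonism was scored as beta-arrestin recruitment to ProLink-fused GPR32 in stably transfected CHO-K1 cells, giving a chemiluminescent beta-Gal signal; compounds were incubated 90 min at 37 °C.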
UniProt O75388, sequence (O75388 whole entry, looked up, the tested form may be a part): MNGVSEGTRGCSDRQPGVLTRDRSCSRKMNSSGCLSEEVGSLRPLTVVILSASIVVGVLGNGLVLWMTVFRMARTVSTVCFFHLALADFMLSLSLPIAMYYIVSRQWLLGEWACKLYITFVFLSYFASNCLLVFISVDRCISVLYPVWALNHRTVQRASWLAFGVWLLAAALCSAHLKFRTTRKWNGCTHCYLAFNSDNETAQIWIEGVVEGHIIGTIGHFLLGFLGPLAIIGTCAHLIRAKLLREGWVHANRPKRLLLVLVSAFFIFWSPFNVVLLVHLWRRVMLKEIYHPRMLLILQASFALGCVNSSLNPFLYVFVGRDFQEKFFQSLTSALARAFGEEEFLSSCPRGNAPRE
`COCCCn1c(=N)c(C(=O)NC2CCCCC2)cc2c(=O)n3cc(C)ccc3nc21`: the activation was inactive: 11.2%.
In the case of `COc1ccc(CCNc2ncnc3onc(C)c23)c(OC)c1` it was active: 75.3%; in that of `CC1CCN(S(=O)(=O)c2ccc3nc(N4CCN(c5ccc(F)cc5)CC4)ccc3c2)CC1`, inactive: -4.01%; in that of `CCc1ccccc1NC(=O)c1ccc(F)c(S(=O)(=O)N2CCN(c3cccc(Cl)c3)CC2)c1`, inactive: -10.7%.
For `Cc1ccc(S(=O)(=O)c2cc3cc(C(=O)Nc4ccc(C)cc4C)ccc3oc2=O)cc1`, the activation is inactive: 12.8%.
For `CC1CCCCN1CCCNC(=O)Cn1ncc2c3ccccc3n(C)c2c1=O` (centres undefined) the value was inactive: -4.71%; for `CCOc1ccc(NC(=O)CSc2oc(-c3ccc(C)cc3)nc2S(=O)(=O)c2ccc(C)cc2)cc1`, inactive: -6.07%.
With `COc1ccc(-c2cc(C(F)(F)F)nc(NCc3ccc(F)cc3)n2)cc1`, the activation was inactive: -5.41%.
For `COc1cccc(C(=O)N(Cc2ccc(C)o2)C2CCS(=O)(=O)C2)c1` (centres undefined) the value was inactive: -14.6%; for `O=C(COCc1cc(-c2cccs2)on1)Nc1cc(C(F)(F)F)ccc1Cl`, inactive: -22.4%; for `CC(C)OCCCNC(=O)CCCN1C(=O)CCn2nc(-c3cccn3C)cc21`, inactive: -2.05%.
In the case of `Cc1ccc(O)c(-c2n[nH]c3c2C(c2ccc(F)cc2)N(Cc2ccco2)C3=O)c1` (centres undefined) it was inactive: 31.4%; in that of `O=C(Nc1ccc(Cl)cc1)c1cc(S(=O)(=O)NC2CCCCCC2)ccc1F`, inactive: -8.74%; in that of `CCc1ccc(S(=O)(=O)c2nnn3c2nc(NCc2ccccc2)c2cc(Cl)ccc23)cc1`, inactive: -12.8%.
For `CCN1C(=O)C(Cc2nc3ccccc3c(=O)n2C)c2cc(C)ccc21` (centres undefined), the activation is inactive: -13.5%.
For `CCOc1ccc(C(=O)Nc2ccc3c(c2)OCCO3)cc1Br` the value was inactive: 16.1%; for `CCCNC(=O)C(Cc1ccccc1)NS(=O)(=O)c1ccc2c(c1)c(=O)n(C)c(=O)n2C` (centres undefined), inactive: -8.14%.
In the case of `COc1ccccc1-c1nc2cc(NC(=O)c3ccccc3Cl)ccc2o1`, the activation is inactive: 1%.
In the case of `Cc1ccc(-c2csc3ncnc(Nc4ccc(C(=O)O)cc4)c23)cc1` it was inactive: 3.88%; in that of `COc1ccc2c(c1)CCc1c(C(=O)Nc3ccc(OC)cc3OC)noc1-2`, inactive: 1.58%.
In the case of `COc1ccccc1NC(=O)c1sc2nc3n(c(=O)c2c1C)N=C(c1cccc(Br)c1)CS3` it was inactive: -12.4%.
In the case of `Cc1nc(S(=O)(=O)N2CCN(c3ccccc3F)CC2)cn1C` it was inactive: 5.39%; in that of `COc1ccc(Cl)cc1NC(=O)CN1Cc2ccccc2C1=O`, inactive: -19.4%; in that of `COc1ccc(Cn2c(C(=O)O)c(CNC3CCCCC3)c3ccc(C)cc32)cc1`, inactive: 13.2%.
In the case of `COC(=O)c1ccc2c(c1)N(Cc1ccccc1)C(=O)c1ccccc1S2(=O)=O`, the activation is inactive: 7.74%.
For `COc1ccc(OC)c(/C=C(\C#N)c2nc(-c3ccc(F)cc3)cs2)c1` the value was inactive: -14.7%; for `O=C(O)c1ccc(NC(=O)c2ccc(Br)c(S(=O)(=O)N3CCCC3)c2)cc1`, inactive: -12.8%.
For `CCOc1ccc(NC(=O)Cc2c[nH]c3ccccc23)cc1` the value was inactive: -0.226%; for `Nc1c(-c2nc(-c3ccc4c(c3)OCO4)cs2)c2ccccn2c1C(=O)c1ccc(Cl)cc1`, inactive: -6.79%.
In the case of `CCCC12CN3CC(C)(CN(C1)C3c1ccc(OCc3ccccc3)cc1)C2=O` (centres undefined) it was inactive: 4.82%; in that of `Cc1cccc(CNC(=O)CN2C(=O)CCn3nc(-c4cn(C)c5ccccc45)cc32)c1`, active: 107%; in that of `Cc1ccc(SCc2nc(-c3ccc(C(=O)NCC(C)c4ccccc4)cc3)oc2C)cc1` (centres undefined), inactive: -6.33%.
On to `Cc1ccc2oc(=O)c3cc(C(=O)NCCc4ccc(Cl)cc4)sc3c2c1`, for which the activation was inactive: 3.47%.
Regarding `Cc1ccc(NC(=O)CCN2C(=O)c3ccccc3Sc3ncccc32)c(Cl)c1`, the activation was inactive: 2.45%.
In the case of `COc1ccccc1NC(=O)c1sc2nc(C)c(C(=O)Nc3ccc(C)cc3C)c(-c3ccccc3Cl)c2c1N` it was inactive: -20.2%; in that of `COc1cc(OC)cc(C(=O)NCCc2csc(-c3ccc(C(F)(F)F)cc3)n2)c1`, inactive: -13.8%.
For `CCS(=O)(=O)N1CCc2cc(C(=O)NCc3ccccc3Cl)ccc21` the value was inactive: 28.7%; for `COc1ccc(NC(=O)C(C(C)C)N2Cc3ccccc3C2=O)cc1` (centres undefined), inactive: -8.82%.
In the case of `CCCCc1nn2c(=O)cc(COC(=O)c3ccccc3C)nc2s1` it was inactive: 8.48%.
For `O=C(c1cc2ccc3cccnc3c2[nH]1)N1CCN(c2cccc(Cl)c2)CC1`, the activation is inactive: -10.3%.
For `CCOc1ccccc1NS(=O)(=O)c1cc(-c2cnc(C3CC3)o2)ccc1C` the value was inactive: -4.66%.
In the case of `Cc1ccc(-n2nc3c(=O)n(C(C)C(=O)NCc4ccccc4C)nc(C)c3c2C)cc1` (centres undefined) it was inactive: 3.73%; in that of `CCc1ccccc1NC(=O)NC(CC)Cn1nnc2ccccc2c1=O` (centres undefined), inactive: -21.5%.
For the compound `Cc1ccc(C)c(NC(=O)CSc2nc(=O)n(Cc3ccncc3)c3c2CCC3)c1`, the activation was inactive: -10.1%.
For `COC(=O)c1cc2sc(C)cc2n1Cc1nc(-c2ccc(C)cc2)oc1C` the value was inactive: -3.3%.
In the case of `CC(=O)N1c2ccc(S(=O)(=O)NCCC(=O)N(C)Cc3ccccc3)cc2CC1C` (centres undefined) it was inactive: 26.4%; in that of `Cc1cc2n(n1)CCC(=O)N2Cc1ccc(C(=O)Nc2cccc(C(F)(F)F)c2)cc1`, inactive: 27.8%; in that of `O=C(NCCc1ccc(Cl)cc1)C(=O)NCC(c1cccs1)S(=O)(=O)c1ccccc1` (centres undefined), inactive: -3.72%.
On to `COc1ccc(-c2noc(CSc3nc4ccccc4[nH]3)n2)cc1`, for which the activation is active: 96.1%.
In the case of `CC(C)c1ccc(Nc2c(-c3ccc(N(C)C)cc3)nc3cnccn23)cc1`, the activation is inactive: 1.48%.
For `Cc1ccc(Nc2c(-c3ccc(C)cc3)nc3c(C)cccn23)cc1` the value was inactive: -20.9%.
For `CCc1cccc(C)c1NC(=O)CCS(=O)(=O)c1ccc2c(c1)oc(=O)n2C` the value was inactive: 2.98%.
In the case of `COc1cccc(CN(C(=O)c2oc3ccccc3c2C)C2CCS(=O)(=O)C2)c1` (centres undefined), the activation was inactive: -23.2%.
For `CN(C)CCC(c1ccccc1)c1ccccn1` (centres undefined) the value was inactive: -8.3% and inactive: -1.02%.
